{
  "source": "PubChem BioAssay AID1461",
  "about": "(National Center for Advancing Translational Sciences (NCATS), 2008)",
  "note": "Out of some 220,000 compounds screened, about 2,300 (1%) were called active. Inconclusive means that the source gave no clear call. Such entries were picked first, then a sample of the others. Calls follow the shape of the dose curve; as a rule, active = well fitted inhibition curve with a large enough effect; inconclusive = small, poorly fitted or top-dose-only effect, or effect the other way; inactive = no such curve, though single readings can be large or run the other way. No potency is given beside an inconclusive call; the fits are too rough. % is scaled to controls: 0 for no effect and ±100 for the full control effect; potency is read from the fitted curve at half-maximal effect; tags tell the direction and shape of the fitted curve.",
  "data": [
    {"target": "Neuropeptide S receptor (Homo sapiens) (UniProt Q6W5P4)", "sequence (Q6W5P4 whole entry, looked up)": "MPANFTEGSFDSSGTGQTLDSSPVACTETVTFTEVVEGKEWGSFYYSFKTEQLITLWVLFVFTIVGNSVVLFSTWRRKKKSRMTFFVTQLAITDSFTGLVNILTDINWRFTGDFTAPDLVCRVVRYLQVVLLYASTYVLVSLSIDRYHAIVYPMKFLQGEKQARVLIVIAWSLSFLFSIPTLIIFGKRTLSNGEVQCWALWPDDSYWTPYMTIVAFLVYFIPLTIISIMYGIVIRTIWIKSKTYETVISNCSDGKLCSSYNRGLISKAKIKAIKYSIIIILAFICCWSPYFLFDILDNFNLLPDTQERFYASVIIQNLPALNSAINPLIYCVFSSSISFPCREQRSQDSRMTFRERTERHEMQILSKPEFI", "assay": "qHTS Assay for Antagonists of the Neuropeptide S Receptor: cAMP Signal Transduction; also: nearly all actives have a fitted effect of over 50% in size", "details": "CHO-NPSR cells, cAMP TR-FRET, antagonist mode; activity change, negative = inhibition: at 38.3 µM (top of the series) unless noted", "values": [
      {"smiles": "CC1=C(C)/C(=N/OC(=O)c2cccc([N+](=O)[O-])c2)C=CC1=O", "Potency": "inconclusive [inhibitor, single point]"},
      {"smiles": "CCOC(=O)C1=C(O)c2ccccc2C(=O)/C1=C\\c1ccc(CC)cc1", "Potency": "inconclusive [inhibitor, single point]"},
      {"smiles": "Cc1nn(-c2ccccn2)c2c1C(=O)C(Br)CC2", "note": "(stereo not drawn)", "activity change, negative = inhibition": "inactive: 19.9%"},
      {"smiles": "C=CCn1c(SCC(=O)c2ccc(OC)cc2)nnc1-c1cc2cccc(OC)c2o1", "Potency": "inconclusive [inhibitor, single point]"},
      {"smiles": "CCOc1cccc(CNc2ccc(O)cc2)c1OCc1ccc(Cl)cc1Cl", "Potency": "inconclusive [inhibitor, partial curve, poor fit]"},
      {"smiles": "Cc1cccc2sc(NC(=O)CN(C)S(=O)(=O)c3ccc(Br)s3)nc12", "Potency": "inconclusive [activator, single point]"},
      {"smiles": "COC(=O)CCN(C(=O)c1cccc([N+](=O)[O-])c1)c1ccccn1", "activity change, negative = inhibition": "inactive: 5.55%"},
      {"smiles": "COc1cc(SC)ccc1C(=O)Nc1ccc(S(=O)(=O)N2CCCC2)cc1", "Potency": "inconclusive [activator, single point]"},
      {"smiles": "COc1ccc(-c2nc(-c3ccccc3)c(-c3cc([N+](=O)[O-])ccc3C)[nH]2)cc1O", "Potency": "inconclusive [inhibitor, single point]"},
      {"smiles": "CSc1ccccc1NC(=O)c1ccccc1N(C)S(C)(=O)=O", "Potency": "inconclusive [activator, single point]"},
      {"smiles": "CCOC(=O)c1cnn(-c2cc(C)nc3c(-c4ccccc4)c(C)nn23)c1N", "Potency": "inconclusive [inhibitor, single point]"},
      {"smiles": "CC(C)OC(=O)c1nnn(-c2nonc2N)c1CN1CCc2ccccc2C1", "Potency": "inconclusive [inhibitor, single point]"},
      {"smiles": "COC(=O)C1CCN(CC(=O)Nc2ccccc2Sc2ccccc2)CC1", "Potency": "inconclusive [inhibitor, single point]"},
      {"smiles": "CCC(C)(C(=O)NC1CCCCC1)N(Cc1ccco1)C(=O)c1ccc2c(c1)OCO2", "note": "(stereo not drawn)", "Potency": "inconclusive [activator, partial curve]"},
      {"smiles": "Cc1cccc(C)c1OCC(O)Cn1nnc2ccccc21", "note": "(stereo not drawn)", "Potency": "inconclusive [inhibitor, single point]"},
      {"smiles": "CCc1cc2cc(C)ccc2nc1SCC(=O)N1CCN(C(=O)c2ccco2)CC1", "Potency": "inconclusive [inhibitor, partial curve]"},
      {"smiles": "O=C(Nc1ccccn1)c1csc2c1CCCC2", "activity change, negative = inhibition": "inactive: 0.157%"},
      {"smiles": "Cc1cc(C(=O)CSc2nnnn2-c2ccc(O)cc2)c(C)n1C", "activity change, negative = inhibition": "inactive: -8.4%"}
    ]}
  ]
}
